Laboratory results as given in PubChem BioAssay AID1508623 (National Center for Advancing Translational Sciences (NCATS), 2021).
The whole screen tested about 48,000 compounds, of which about 450 (0.94%) were called active. Not shown: some 19% with an inconclusive outcome. Calls follow the shape of the dose curve; as a rule, active = well fitted inhibition curve with a large enough effect; inconclusive = small, poorly fitted or top-dose-only effect; inactive = no such curve, though single readings can be large or run the other way. The list shows a part of the results.

Assay: Primary qHTS for Identification of Small Molecule Inhibitors of Huntingtin Promoter Activity; also: nearly all actives have a fitted effect of over 50% in size
Conditions: HEK293 HTT promoter firefly luciferase reporter (activity 0% = vehicle and -100% = no light), 24 h; series mostly up to 57.5 µM; activity change, negative = inhibition: at the top concentration
Procedure, shortened: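 Quantitative HTS used concentration series of up to 57.5 uM final on HEK293 luciferase reporter cells, 24 h at 37 degrees C. Readout was Dual-Glo firefly luminescence.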
Potency is read from the fitted curve at half-maximal effect.

Structure (SMILES)	activity change, negative = inhibition	Potency
Cc1ccc(Cn2c3ccccc3c3cnn(CC(=O)Nc4cc(Cl)ccc4C)c(=O)c32)cc1	inactive: -16.2%	
COc1ccc(N2CCN(C(=O)c3cccn3-c3nnc(N4CCCC4)s3)CC2)cc1	inactive: -3.67%	
O=C(CSc1n[nH]c(-c2ccccc2Cl)n1)NCCc1ccccc1	inactive: -7.7%	
CCc1nn(CCCC(=O)NCc2ccc(OC(C)C)cc2)c(=O)c2cc3occc3n12	inactive: -20.4%	
CCOc1cc(CNS(=O)(=O)c2ccc3c(c2)C(C)(C)C(=O)N3)cc(OCC)c1OCC	inactive: 2.02%	
CC(NC(=O)Cn1ccc2cc(S(=O)(=O)N3CCCCCC3)ccc21)c1ccccc1 (configuration not stated)	inactive: -20.6%	
COc1ccc(C)cc1NC(=O)Nc1nnc(N2CCCCC2)s1	inactive: 4.39%	
CCOC(=O)C1CCCN(c2nc3c(S(=O)(=O)c4ccc(CC)cc4)nnn3c3ccc(Cl)cc23)C1 (configuration not stated)	inactive: 13%	
CCOC(=O)c1c(C)[nH]c(CCC(=O)Nc2ccccc2C(F)(F)F)c1C	inactive: -16.8%	
COc1ccc(C(=O)Nc2ccc(S(=O)(=O)Nc3cc(C)nc(C)n3)cc2)cc1	inactive: 5.56%	
O=C(CCS(=O)(=O)c1cc2c(cc1Cl)NC(=O)CO2)NCCc1ccccc1	inactive: -5.31%	
CCCS(=O)(=O)N1CC(=O)N(c2cccc(F)c2)C(C)(C(=O)NC2CCCCCC2)C1 (configuration not stated)	inactive: 0.626%	
COc1cc(CNc2ccc3[nH]c(=O)[nH]c3c2)ccc1OCc1ccc(F)cc1Cl	inactive: -6.62%	
COC(=O)c1ccc2c(=O)n3nc(Nc4ccc(F)cc4F)sc3nc2c1	inactive: -1.84%	
CS(=O)(=O)N(Cc1ccccc1)c1ccc(C(=O)Nc2cccc(Cl)c2)cc1	inactive: -7.98%	
COc1ccc(CNC(=O)c2ccc3c(O)c(S(=O)(=O)c4ccccc4)c(=O)[nH]c3c2)cc1	inactive: -4.8%	
Cc1cc(NS(=O)(=O)c2ccc(N)cc2)no1	inactive	
COc1ccc(NC(=O)c2c(NC(=O)C(F)(F)F)sc3c2CCCCC3)cc1	inactive: -1.86%	
O=C(Nc1cccc(C(F)(F)F)c1)Nc1nnc(N2CCCCCC2)s1	inactive: -14%	
COCCCNC(=O)CN1C(=O)c2cccnc2Sc2ccccc21	inactive: -5.05%	
COc1ccccc1N1CCN(C(=O)c2cc(-c3ccc(C)c(F)c3)on2)CC1	inactive: 2.6%	
Cc1ccc(NC(=O)CSc2nc(-c3ccco3)cc(C(F)(F)F)n2)c(C)c1	inactive: -15.7%	
CCOc1ccc(S(=O)(=O)N2Cc3ccccc3CC2C(=O)Nc2ccc(NC(C)=O)cc2)cc1 (configuration not stated)	inactive: -19%	
CCN(CC)CCNC(=O)C(=O)Nc1c2c(nn1-c1ccc(F)cc1)CSC2	inactive: -15.6%	

Structure (SMILES)	activity change, negative = inhibition	Potency
Cc1cccc(NC(=O)CSc2nc3ccc(NC(=O)COc4ccccc4C)cc3s2)c1	inactive: -10.7%	
O=C(NCc1ccc(Cl)cc1)C1CCN(c2nn3cc(-c4ccc(F)cc4)nc3s2)CC1	inactive: 3.93%	
CCn1c2c(c(=O)n3ncc(C(=O)Nc4cc(Cl)ccc4OC)c13)CN(Cc1ccc(OC)cc1)CC2	inactive: -3.48%	
CCCNC(=O)CCC(=O)N1Cc2cccc(OC)c2Oc2ncccc21	inactive: -0.186%	
CC1CN(C(=O)NCc2ccccc2)c2cc(Cl)ccc2O1 (configuration not stated)	inactive: 4.29%	
COc1ccc(NC(=O)c2nc(S(C)(=O)=O)ncc2N(Cc2ccc(C)cc2)Cc2ccco2)cc1Cl	inactive: -16.8%	
COc1cccc(CNC(=O)c2cc(-c3ccc(Cl)s3)nc3ccccc23)c1	inactive: 9.88%	
CCCCc1cc(=O)oc2cc(C)c3c(C(C)(C)C)coc3c12	inactive: -8.56%	
COc1ccc(C)cc1NC(=O)N1CCN(S(=O)(=O)c2ccc3c(ccn3C)c2)CC1	inactive: -26%	
Cc1ncc(CO)c2c1Oc1nc(-c3ccc(Cl)cc3)nc(SCC(=O)N3CCCCC3)c1C2	inactive: -21.4%	
Cc1cccc(CSc2nc3c(sc4ccccc43)c(=O)n2CCC(=O)NC(C)C)c1	inactive: 20.8%	
O=C(CSc1nc2ncccc2[nH]1)Nc1cc(F)ccc1F	inactive: -4.61%	
O=C(CCn1c(=O)c2cccn2c2cccnc21)NCc1ccccc1Cl	inactive: 5.27%	
Cc1ccc(CNC(=O)CCc2c(C)nn(-c3ccc(N4CCOCC4)nn3)c2C)cc1	inactive: 2.05%	
CCOc1ccc(C(=O)c2cn(CC(=O)Nc3ccc4c(c3)OCO4)c3ccc(OC)cc3c2=O)cc1	inactive: -7.52%	
O=C(Nc1cccc(Cl)c1)C1CCCN(c2nn3cc(-c4ccc(F)cc4)nc3s2)C1 (configuration not stated)		active: 3.98 µM
CCn1c(=O)n(-c2ccc3c(c2)OCO3)c2nc(-c3ccc(C(C)C)cc3)nc(C(N)=O)c21	inactive: -7.98%	
CCOc1ccc2c(c1)c(=O)c(C(=O)c1ccc(CC)cc1)cn2CC(=O)Nc1ccccc1OC	inactive: -13.6%	
COc1ccc(OC)c(NC(=O)Cn2c(=O)c3cccn3c3ccccc32)c1	inactive: -5.84%	
CCOC(=O)C1CCN(C(=O)c2nn(-c3ccc(OC)c(Cl)c3)c(=O)c3c2c2ccccc2n3C)CC1	inactive: 8.85%	
Cc1ccc(Cl)cc1NC(=O)CSc1nc2ccccc2c2nc(-c3ccccc3)nn12	inactive: -5.32%	
Cc1ccc(S(=O)(=O)c2cn(CC(=O)Nc3cccc(Cl)c3)c3ccccc3c2=O)cc1	inactive: -30.9%	
CC1(C)N=C(SCc2ccc(F)cc2)c2ccccc2N1	inactive: -4.07% [at 11.5 µM]	
